# Reference: the supplement of paper PMC8728848
# The list shows a part of the results.
# B1: CML1 (Coprinopsis cinerea) (protein)
# chain: MAIFHTGSELFIITRGPGKLTLLTWGGLNNLRSVIGAIPTENTGVTKWAVSFSHNYTRFSFIWEGQGEACYQIGNGLTRSPVGRSWSSSSTIHWGSSTVITEDVTSVVPGAVNRDKVTTAYALPDNL
# Tests used:
# Assay in all cases: glycan array binding signal (z-score within array); higher = stronger binding
# Details in all cases: glycan notation: IUPAC condensed, linker removed
# [1] = target: Gal(b1-4)GalNAc(b1-3)[Fuc(a1-2)]Gal(b1-4)GlcNAc
# Summary of the method: (§1)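 Glycan array data were curated from 3228 arrays in the Consortium for Functional Glycomics database and kept only where the protein sequence was available. Glycan names were converted to IUPAC-condensed notation, and columns mapping to the same glycan were averaged. The binding signal is a within-array Z-score, averaged across arrays of the same protein sequence at different concentrations or buffers and across linkers. Negative Z-scores can be read as non-binding.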
# Gal(b1-4)Glc = target: Gal(b1-4)Glc
# Summary of the method: as §1
# Gal(b1-4)Glc6S = target: Gal(b1-4)Glc6S
# Summary of the method: as §1
# Gal(b1-4)GlcNAc = target: Gal(b1-4)GlcNAc
# Summary of the method: as §1
# [2] = target: Gal(b1-4)GlcNAc(a1-6)Gal(b1-4)GlcNAc
# Summary of the method: as §1
# Gal(b1-4)GlcNAc(b1-2)Man = target: Gal(b1-4)GlcNAc(b1-2)Man
# Summary of the method: as §1
# [3] = target: Gal(b1-4)GlcNAc(b1-2)Man(a1-3)Man(b1-4)GlcNAc(b1-4)GlcNAc
# Summary of the method: as §1
# [4] = target: Gal(b1-4)GlcNAc(b1-2)Man(a1-3)[Gal(b1-4)GlcNAc(b1-2)Man(a1-6)]Man(b1-4)GlcNAc(b1-4)GlcNAc
# Summary of the method: as §1
# [5] = target: Gal(b1-4)GlcNAc(b1-2)Man(a1-3)[Gal(b1-4)GlcNAc(b1-2)Man(a1-6)]Man(b1-4)GlcNAc(b1-4)[Fuc(a1-6)]GlcNAc
# Summary of the method: as §1
# [6] = target: Gal(b1-4)GlcNAc(b1-2)Man(a1-3)[Gal(b1-4)GlcNAc(b1-2)Man(a1-6)][Gal(b1-4)GlcNAc(b1-4)]Man(b1-4)GlcNAc(b1-4)[Fuc(a1-6)]GlcNAc
# Summary of the method: as §1
# [7] = target: Gal(b1-4)GlcNAc(b1-2)Man(a1-3)[Gal(b1-4)GlcNAc(b1-2)Man(a1-6)][GlcNAc(b1-4)]Man(b1-4)GlcNAc(b1-4)[Fuc(a1-6)]GlcNAc
# Summary of the method: as §1
# [8] = target: Gal(b1-4)GlcNAc(b1-2)Man(a1-3)[GlcNAc(b1-2)Man(a1-6)]Man(b1-4)GlcNAc(b1-4)GlcNAc
# Summary of the method: as §1
# [9] = target: Gal(b1-4)GlcNAc(b1-2)Man(a1-3)[GlcNAc(b1-4)][Gal(b1-4)GlcNAc(b1-2)Man(a1-6)]Man(b1-4)GlcNAc(b1-4)GlcNAc
# Summary of the method: as §1
# [10] = target: Gal(b1-4)GlcNAc(b1-2)Man(a1-3)[Man(a1-6)]Man(b1-4)GlcNAc(b1-4)GlcNAc
# Summary of the method: as §1
# [11] = target: Gal(b1-4)GlcNAc(b1-2)Man(a1-6)Man(b1-4)GlcNAc(b1-4)GlcNAc
# Summary of the method: as §1
# [12] = target: Gal(b1-4)GlcNAc(b1-2)Man(a1-6)[GlcNAc(b1-2)Man(a1-3)]Man(b1-4)GlcNAc(b1-4)GlcNAc
# Summary of the method: as §1
# [13] = target: Gal(b1-4)GlcNAc(b1-2)Man(a1-6)[Man(a1-3)]Man(b1-4)GlcNAc(b1-4)GlcNAc
# Summary of the method: as §1
# [14] = target: Gal(b1-4)GlcNAc(b1-2)[Gal(b1-4)GlcNAc(b1-4)]Man(a1-3)[Gal(b1-4)GlcNAc(b1-2)Man(a1-6)]Man(b1-4)GlcNAc(b1-4)GlcNAc
# Summary of the method: as §1
# [15] = target: Gal(b1-4)GlcNAc(b1-2)[Gal(b1-4)GlcNAc(b1-4)]Man(a1-3)[Gal(b1-4)GlcNAc(b1-2)[Gal(b1-4)GlcNAc(b1-6)]Man(a1-6)]Man(b1-4)GlcNAc(b1-4)GlcNAc
# Summary of the method: as §1
# [16] = target: Gal(b1-4)GlcNAc(b1-2)[Gal(b1-4)GlcNAc(b1-4)]Man(a1-3)[GlcNAc(b1-4)][Gal(b1-4)GlcNAc(b1-2)Man(a1-6)]Man(b1-4)GlcNAc(b1-4)GlcNAc
# Summary of the method: as §1
# [17] = target: Gal(b1-4)GlcNAc(b1-2)[Gal(b1-4)GlcNAc(b1-4)]Man(a1-3)[GlcNAc(b1-4)][Gal(b1-4)GlcNAc(b1-2)[Gal(b1-4)GlcNAc(b1-6)]Man(a1-6)]Man(b1-4)GlcNAc(b1-4)GlcNAc
# Summary of the method: as §1
# [18] = target: Gal(b1-4)GlcNAc(b1-2)[Gal(b1-4)GlcNAc(b1-6)]Man(a1-6)[Gal(b1-4)GlcNAc(b1-2)Man(a1-3)]Man(b1-4)GlcNAc(b1-4)GlcNAc
# Summary of the method: as §1
binder,measurement,setting,value
B1,glycan array binding signal (z-score),[1],-0.335
same,glycan array binding signal (z-score),Gal(b1-4)Glc,-0.365
same,glycan array binding signal (z-score),Gal(b1-4)Glc6S,-0.319
same,glycan array binding signal (z-score),Gal(b1-4)GlcNAc,-0.355
same,glycan array binding signal (z-score),[2],-0.358
same,glycan array binding signal (z-score),Gal(b1-4)GlcNAc(b1-2)Man,-0.326
same,glycan array binding signal (z-score),[3],-0.341
same,glycan array binding signal (z-score),[4],-0.346
same,glycan array binding signal (z-score),[5],-0.31
same,glycan array binding signal (z-score),[6],-0.348
same,glycan array binding signal (z-score),[7],-0.343
same,glycan array binding signal (z-score),[8],-0.342
same,glycan array binding signal (z-score),[9],-0.336
same,glycan array binding signal (z-score),[10],-0.339
same,glycan array binding signal (z-score),[11],-0.345
same,glycan array binding signal (z-score),[12],-0.345
same,glycan array binding signal (z-score),[13],-0.312
same,glycan array binding signal (z-score),[14],-0.294
same,glycan array binding signal (z-score),[15],-0.334
same,glycan array binding signal (z-score),[16],-0.335
same,glycan array binding signal (z-score),[17],-0.343
same,glycan array binding signal (z-score),[18],-0.329
